# In the supplement of paper PMC3334620:
# Over roughly 33,000 sequences, “E-score (-0.5 to 0.5)” has its median near -0.054; the highest 2% begin near 0.39. The list shows a part of the results.
# Target: Ylr278c (UniProt Q05854)
# Test: PBM E-score (8-mer binding enrichment) (E-score (-0.5 to 0.5)); higher = stronger / more preferred TF binding; most listed sequences are background and not binding sites
# Conditions: protein concentration: 200 nM; construct: GST-DNA-binding domain
# Outline: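 Full-length yeast transcription factors or their DNA-binding domains, GST-tagged and expressed with PURExpress, were applied at about 100-200 nM to universal all-10-mer Agilent arrays. These arrays had been made double-stranded by primer extension on fresh or once-stripped slides. Detection used fluorescent anti-GST, normalisation used masliner, and E-scores for ungapped eight-base words pooled with reverse complements came from the Universal PBM Analysis Suite.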
row,Sequence,PBM E-score
1,ACTAGCGC,0.0149
2,AGTCATCC,-0.0541
3,CATAAGGA,-0.298
4,GCGCGTAC,0.179
5,CAGCCCGG,0.348
6,CTCCGACA,0.438
7,ACTCTTGG,-0.243
8,CCCATCGG,0.341
9,AGGCTCTA,-0.116
10,TCAAGAGA,-0.0473
11,ATCGCTCC,0.171
12,TCATATCA,-0.0987
13,CCATCCAC,-0.157
14,AACTGATC,-0.0713
15,CCGCAACG,0.235
16,ATTATCAA,-0.131
17,ATAGGGTG,-0.185
18,GTTGGATA,-0.0965
19,ACCTTCCC,-0.0567
20,CTAGCACC,-0.00874
21,GACTGGTA,0.0894
22,AGCACTTG,-0.312
23,AAACGCAG,0.0348
24,AAGTTCAG,-0.179
25,CGCTGACC,0.0763

row,Sequence,PBM E-score
1,AGTTAAGA,-0.191
2,GACCATAC,0.0249
3,GGCGACCC,0.114
4,CGTATTGC,0.144
5,ACGTTGGC,-0.0969
6,GGGGTTAC,0.121
7,CTTGGACC,-0.0833
8,CGGGAATA,0.374
9,AGCAGAAC,-0.208
10,CTATGTGC,-0.147
11,CGGGCGAC,0.217
12,AGTCGTGA,-0.211
13,CCGGTCTC,0.264
14,AGCATGCG,-0.0092
15,ACTAGAGA,-0.112
16,AGTACTCA,-0.24
17,GTACCGGA,0.415
18,GGGGGTTA,-0.28
19,CCGGGATA,0.395
20,CGCCGTCC,0.173
21,GCGCGCAA,0.219
22,CTACTATA,0.0735
23,ACAAGGAA,0.0444
24,ACAATCCC,0.257
25,AAGTTGGT,0.0137

row,Sequence,PBM E-score
1,CAAGTGTA,-0.18
2,GAGGACAA,-0.122
3,ATAGCCCA,-0.0838
4,CCCCGCGA,0.315
5,CCCTGACA,-0.119
6,CGGAGGTC,0.443
7,TACAACGA,-0.0145
8,CAATTTGA,0.0464
9,ATAAGCTC,0.0692
10,CGAAACCC,0.252
11,ACACGCTG,-0.171
12,CATAGTTA,-0.073
13,ACTTCGCT,-0.0759
14,AGCGTGGC,-0.0918
15,CTGTCGGC,0.35
16,CCAGCTGC,-0.0449
17,GATTTGAC,-0.0259
18,AATCTATG,-0.0536
19,CGATCCCG,0.263
20,TATGGTGA,-0.123
21,GAGGGGCC,-0.0204
22,CTCCGCCA,0.391
23,CCTTACAA,-0.13
24,AGTAGTAG,-0.146
25,AATATACT,0.0121

row,Sequence,PBM E-score
1,ACTTGCCC,0.0605
2,GCTCAGCC,-0.186
3,GGGACCAA,-0.0981
4,CAAACTAA,-0.0135
5,AAGGATTC,0.0256
6,AACAACCT,-0.104
7,AGGGTATC,-0.157
8,AACACGTC,-0.0585
9,CGCCAACC,0.104
10,GGTAGAAA,-0.0702
11,GCATCTCC,0.279
12,ACACTCTC,0.012
13,AGCGAAAC,0.0799
14,CCGCCACA,0.172
15,CTTTTTCC,0.167
16,AGATATAT,0.108
17,AGTGACCC,-0.0429
18,ATTGATCA,-0.202
19,AATATCGC,0.125
20,CGCGATTA,0.0862
21,CCCAAACA,-0.187
22,GAGTTTCA,0.038
23,CCACGCGC,-0.0375
24,CCGTTGTA,0.116
25,GCGTGTAC,-0.134

row,Sequence,PBM E-score
1,GATTTCGC,0.21
2,AATACTTG,-0.181
3,CACGCAGC,-0.00959
4,ATAGATCG,0.0794
5,AGTACGTC,-0.0722
6,CAAGTTAG,-0.0673
7,CTCTAAAA,-0.129
8,GCAGCTAC,-0.00295
9,AAGATTTA,0.0664
10,CGCCTAAA,-0.186
11,AGGTCAGC,-0.0623
12,CCCATGCG,-0.0748
13,TATATCAA,-0.0414
14,AAGATGGG,-0.0965
15,CGTTCTAA,0.129
16,GCCGTCGA,0.0565
17,TCACCCAA,0.0072
18,CAACCACC,0.042
19,GGCTCCCA,-0.145
20,ATGGAGGG,-0.302
21,ATTGCCGC,0.157
22,AGTCCATG,-0.0219
23,ACCTGAAC,-0.178
24,GCTGATCC,-0.00411
25,AAAATATC,-0.0383

row,Sequence,PBM E-score
1,AGAATAAC,-0.156
2,CGGTACAA,0.187
3,AGAAGCCT,-0.0867
4,CGGTAGAG,0.121
5,CGGCCCGC,0.223
6,AGGCTGGC,-0.223
7,AAACAACG,-0.0017
8,AGGCCTTG,-0.195
9,GAGGTCGA,-0.157
10,GTGGATAA,-0.0218
11,ACTCCGTC,0.459
12,GCCCGAAC,0.215
13,AGCTAGCC,-0.13
14,CCTCAACC,-0.293
15,CTCTCGGC,0.181
16,AAGTGGGA,0.0602
17,GGAAGGAA,-0.0382
18,AGTCCCTC,-0.137
19,ACTTGTGA,-0.263
20,AAGGTATG,-0.0741
21,ATTCGAGA,-0.196
22,GGTAGTAC,-0.0883
23,CTCCCGCA,0.243
24,GACATCAA,0.125
25,ACCCACCC,0.253

row,Sequence,PBM E-score
1,AGAAAGCA,-0.0831
2,TGAAAACA,-0.116
3,AACACAAG,-0.162
4,CGGCTTGC,0.156
5,AACACAGC,0.0155
6,ATCTATAC,-0.0439
7,CCACTCCC,0.0826
8,CAGGCGGC,0.0762
9,CATATCGA,-0.0441
10,GGTTGGGA,-0.108
11,CTCAACAC,-0.0996
12,ACACTTAT,-0.0994
13,ACCGTACT,-0.0306
14,AATCCTCT,-0.217
15,CACTTCAG,-0.0409
16,ACCGTTGA,-0.148
17,CTGACCCC,-0.0261
18,CAGTCTCG,-0.287
19,ATACAGGG,-0.00103
20,CTCTACTA,-0.245
21,ATACGCGA,-0.0101
22,AATACGAT,-0.0208
